Measurements published in US12428485B2, “Compositions and methods to block and bind CCR2 to modulate cellular function” (The Research Foundation for The State University of New York, priority 2019, dated 2025).
Entries after “also recorded” stand apart in the source; their conditions may differ.

Assays:
[1] = biological target: T1, N-terminal domain of CCR2 (Mus musculus, UniProt P51683); assay: ELISA binding to biotinylated N-terminal domain CCR2 peptide (phage and recombinant scFv); set-up: species or system murine; settings: phage clones, top five binders
T1 construct: ABclonal, Woburn, MA); purchased ABclonal, Woburn, MA
T1 sequence (P51683 1-45): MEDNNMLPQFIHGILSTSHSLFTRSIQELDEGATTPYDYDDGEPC
Experimental: Biotinylated N-terminal CCR2 domain was captured on magnetic streptavidin coated beads and four rounds of affinity selections were performed as previously described.^24 The selection was performed at room temperature using a phage display library that was constructed from peripheral human blood lymphocytes and that expresses single-chain fragments of antibodies. To identify CCR2 N-terminal domain binders, single bacterial colonies were picked after the fourth round of selection for phage amplification followed by a phage enzyme-linked immunosorbent assay (ELISA). Clones that yielded a signal above background were sequenced and further analyzed with regard to binding affinity.
Nunc MaxiSorp 96-well plates were coated with NeutrAvidin at 5 μg/mL and incubated overnight at 4° C. The plate was thoroughly washed with 0.1% PBS-Tween (PBST), and 5 μg/mL biotinylated N-terminal domain CCR2 peptide ([…] (SEQ ID NO:58); ABclonal, Woburn, MA) added and incubated for 1 h at room temperature. The wells were washed with 0.1% PBST and then blocked with casein blocking buffer for 1 h at room temperature. The wells were washed with 0.1% PBST followed by incubation of serially diluted scFv for 1 h at room temperature before being washed five times with 0.1% PBST. […] The absorbance was measured at 450 nm with a FilterMax F3 & F5 multi-mode microplate reader (Molecular Devices, Sunnyvale, CA). […]

[2] = tested on: RAW 264.7 macrophage cells; assay: Cell binding analysis by flow cytometry, RAW 264.7; set-up: species or system mouse; settings: fluorescently labeled scFv
Experimental: FIG. 13. Binding of monomeric 58C-scFv (circles), low valency 58C-scFv attached to liposomes (triangles), and high valency 58C-scFv attached to liposomes (squares) to RAW 264.7 macrophage cells as determined by flow cytometry. […] The liposomes were incubated with DyLight 650 NHS Ester labeled 58C-scFv at 4° C. overnight. Cells were detached with 5 mM EDTA and re-suspended in PBS to a concentration of 50,000 cells per 300 μL. The cells were incubated with various dilutions of DyLight 650 NHS Ester labeled 58C-scFv (free, low degree of valency, or high degree of valency) for 1 h at 4° C. Cells were washed three times with 5% BSA and analyzed in the APC channel of a MACSQuant Analyzer 10 flow cytometer (Miltenyi Biotec, Bergisch Gladbach, Germany).
(§1) Cells were detached with 5 mM EDTA and re-suspended in PBS to a concentration of 50,000 cells per 300 μL. Cells were plated in a 48-well plate and incubated for 30 min at 4° C. After removing the PBS solution, the cells were incubated with various dilutions of DyLight 650 NHS Ester labeled 58C-scFv for 1 h at 4° C. Cells were washed three times with 5% BSA, detached with EDTA, and analyzed in the APC channel of a MACSQuant Analyzer 10 flow cytometer (Miltenyi Biotec, Bergisch Gladbach, Germany).

[3] = tested on: MDA-MB-231 breast cancer cells; assay: Cell binding analysis by flow cytometry, MDA-MB-231; set-up: species or system human; settings: fluorescently labeled scFv
Experimental: as §1

[4] = tested on: CCR2 expressing cells vs CCR2-negative HEK cells; assay: Cell binding, CCR2 expressing cells versus CCR2-negative HEK cells; settings: MFI at 2.5 μM, DyLight-650 labeled
Experimental: FIG. 2. Identification and characterization of 58C-scFv binding to CCR2. (A) Phage ELISA of clones generated through affinity selection using a scFv library. […] (E) 58C-scFv binding to RAW 264.7 (F) and MDA-MB-231 cells was concentration-dependent. (G) Mean fluorescent intensity (MFI) following incubation of HEK, MDA-MB-231, and Raw264.7 cells with the DyLight-650 labeled 58C-scFv. The MFI was determined at 2.5 μM for MDA-MB-231 and HEK, and RAW 264.7 cells. Data are represented as mean±sd, *p<0.05, **p<0.01, ***p<0.001 with one-way ANOVA followed by Dunnett's post-test.
as §1

[5] = biological target: T2, human CCR2 (Homo sapiens, UniProt P41597); assay: Cross-reactivity with human CCR2; assay type: binding
T2 construct: endogenous in cells; host or cells: MDA-MB-231 human breast cancer cells
T2 sequence (P41597 whole entry): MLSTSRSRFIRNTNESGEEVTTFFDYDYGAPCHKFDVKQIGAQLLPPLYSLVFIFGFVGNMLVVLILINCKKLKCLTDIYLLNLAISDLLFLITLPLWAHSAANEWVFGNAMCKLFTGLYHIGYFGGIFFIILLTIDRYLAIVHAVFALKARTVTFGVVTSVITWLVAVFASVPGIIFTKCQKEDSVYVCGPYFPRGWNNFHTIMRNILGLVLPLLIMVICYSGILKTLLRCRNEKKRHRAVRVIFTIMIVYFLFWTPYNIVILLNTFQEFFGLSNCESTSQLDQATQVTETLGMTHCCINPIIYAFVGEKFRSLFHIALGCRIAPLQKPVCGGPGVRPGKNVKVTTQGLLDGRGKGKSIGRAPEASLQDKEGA

[6] = tested on: RAW 264.7 murine macrophages; assay: Transwell migration assay, RAW 264.7, CCL2 chemoattractant; assay type: cell-based, mouse; settings: for inhibition of migration: RAW 264.7, highest concentration tested, CCL2 chemoattractant
Experimental: (§2) Cells were serum starved for 24 h before being detached with 5 mM EDTA in PBS and re-suspended in transwell medium (DMEM without phenol red, 25 mM HEPES, and 0.1% BSA) at a concentration of 70×10^4 cells per 100 μL. Cells were incubated with various concentrations of scFv for 30 min at 4° C. and then added to the apical chamber of either a 5 μm (RAW 264.7) or 8 μm (MDA-MB-231) pore transwell plate (Milipore Sigma, Burlington, MA). The basolateral compartment contained 25 nM of CCL2 in serum-free medium to induce chemotaxis. Cells were incubated at 37° C. with 5% CO2 for either 4 h (RAW 264.7) or 21 h (MDA-MB-231). After incubation, the cells in the apical chamber were removed and the wells were placed in a new feeder tray containing pre-warmed cell detachment solution. Wells were incubated with cell detachment buffer for 30 min at 37° C. with occasional rocking to detach migrated cells. Then, lysis buffer and dye solution were added to the detachment solution containing the migrated cells. The solution was incubated for 15 min and fluorescence measured on a SpectraMax microplate reader (Molecular Devices) with an excitation/emission of 480/520.

[7] = tested on: MDA-MB-231 breast cancer cells; assay: Transwell migration assay, MDA-MB-231, CCL2 chemoattractant; assay type: cell-based, human; settings: MDA-MB-231, highest concentration tested
Experimental: as §2

[8] = tested on: RAW 264.7 mouse macrophages; assay: Macrophage polarization, RT-PCR of M1/M2 marker genes, RAW 264.7; assay type: cell-based
Experimental: RAW 264.7 mouse macrophages were incubated with either LPS (100 ng/mL), IL-4 (20 ng/mL; PeproTech, Rocky Hill, NJ), or 58C-scFv (1 μM) for 24 h. For the multivalency studies, RAW 264.7 mouse macrophages were first incubated with IL-4 (20 ng/mL) for 24 h to stimulate an M2 phenotype. Following the 24 h incubation, fresh media with 58C-scFv (89 nM) was added to the cells and incubated for an additional 24 h. Total RNA was isolated with QIAzol lysis reagent (Qiagen, Germany) and total cDNA was generated using the New England Biolabs first stand synthesis kit (Ipswich, MA). RNA expression was detected by reverse transcription (RT)-PCR performed with the SYBR Green PCR kit (Qiagen). For each sample, the ΔΔCt value was calculated. Experiments were performed in triplicate. The primers were: β-actin (forward: 5′-ccctgtatgcctctggtc-3′(SEQ ID NO:10), reverse: 5′-gtctttacggatgtcaacg-3′(SEQ ID NO:11)), iNOS (forward: 5′-[…]-3′(SEQ ID NO:12), reverse: 5′-[…]-3′(SEQ ID NO:13)), IL-6 (forward: 5′-[…]-3′(SEQ ID NO:14), reverse: 5′-[…]-3′(SEQ ID NO:15)), ARG-1 (forward: 5′-[…]-3′(SEQ ID NO:16), reverse: 5′-[…]-3′(SEQ ID NO:17)), MGL2 (forward: 5′-[…]-3′(SEQ ID NO:18), reverse: 5′-[…]-3′(SEQ ID NO:19)).
To assess the effects of the anti-CCR2 scFvs on macrophage polarization, RAW 264.7 and bone marrow-derived macrophages (BMDMs) were treated with NTD-scFv and ECL2-scFv. Inducible nitric oxide synthase (iNOS) and interleukin 6 (IL-6) were used as M1 markers. Arginase 1 (Arg1) and macrophage galactose N-acetyl-galactosamine-specific lectin 2 (Mgl2) were used as M2 markers. […] To determine whether these changes were additive, synergistic, or antagonistic, the combination indices (CI) were calculated for NTD-scFv and ECL2-scFv by treating cells with a combination of NTD-scFv and ECL2-scFv. CI was calculated by: CI=(CA,X/ICX,A)+(CB,X/ICX,B), where CA,X and CB,X are the concentration of drug A (in this case NTD-scFv) and B (here, ECL2-scFv) used in combination to achieve x % drug effect. ICX,A and ICX,B are the concentrations for the single scFvs to achieve the same effect. CI<1 indicates synergy, CI=1 indicates additivity, and CI>1 indicates antagonism. […] These studies were performed in RAW 264.7 cells (FIG. 17A, B, C), but similar results were found for bone marrow-derived macrophages isolated from BALB/c mice (FIG. 17D). As shown by the isobolograms, the M1 polarization effects occurred at lower doses when NTD-scFv was used in combination with ECL2-scFv.

[9] = tested on: 4T1 breast cancer cells in the mammary fat pad; assay: 4T1 breast tumor treatment with unmodified NTD-scFv; assay type: in vivo, female BALB/c mice; settings: 1.25 mg/kg, five doses at two-day intervals, tail vein
Experimental: To assess the therapeutic efficacy of the NTD-scFv, female BALB/c mice harboring 4T1 breast cancer cells in the mammary fat pad were treated with NTD-scFv when the tumor sizes reached 150 mm^3. The NTD-scFv was administered via tail vein injection. Mice received five doses of NTD-scFv at two-day intervals at 1.25 mg/kg. PBS-treated mice served as controls.

[10] = mouse, in vivo
[11] = mouse, in vivo; remark: listed apart in the source

affinity by phage ELISA [1]: highest affinity
cross-reactivity, binding to human CCR2 [5]: bind to human CCR2
B1: 58C-scFv: scFv against the N-terminal domain of CCR2, SEQ ID NO:5 (shortened SEQ ID NO:57) (protein, listed as Homo sapiens)
scFv: MKKTAIAIAVALAGFATVAQADYKDDDDKL[about 100 residues skipped]GKSSGSGSESKASEVQLLESGAEVKKPGASVKVSCKTSGYTFTTYDIYWMRLATGQRLEWMGWVNPDNGKTDYAQKFQGRVTISRDSSINTVFMELSNLRLEDTAIYFCARALTRWQQSPLGYWGQGTLVTVSSVEASAAALDYKDDDDKLDHHHHHH
binding to RAW 264.7 cells [2]: bound with concentration dependence; also recorded: concentration-dependent
binding to MDA-MB-231 cells [3]: bound with concentration dependence; also recorded: concentration-dependent
binding to CCR2 expressing cells compared with CCR2-negative HEK cells [4]: significantly higher binding
higher inhibition of macrophage migration than a commercially available CCR2-targeted antibody ([6]; RAW 264.7): 40-60%
inhibition of migration [6]: approximately 75%
inhibition of migration ([6]; listed as NTD-scFv): ~75%
inhibition of migration [7]: approximately 75%
M1/M2 ratio IL-6/Arg-1, increase over the negative control ([8]; RAW 264.7, 1 μM, 24 h): 3.4×10^5 fold
M1/M2 ratio IL-6/Mgl2, increase over the negative control ([8]; RAW 264.7, 1 μM, 24 h): 1.7×10^6 fold
M1/M2 ratio iNOS/Arg-1, increase over the negative control ([8]; RAW 264.7, 1 μM, 24 h): 1.0×10^4 fold
M1/M2 ratio iNOS/Mgl2, increase over the negative control ([8]; RAW 264.7, 1 μM, 24 h): 5.1×10^4 fold
macrophage polarization, M1/M2 gene expression compared to the untreated control ([8]; RAW 264.7, 24 h, LPS 100 ng/mL, IL-4 20 ng/mL, 58C-scFv 1 μM): polarized macrophages to the M1 phenotype
macrophage polarization on co-incubation with IL-4 ([8]; RAW 264.7, compared to IL-4 only control): able to polarize macrophages back to an M1 phenotype
shift of macrophage phenotype measured by the M1/M2 gene ratio ([8]; RAW 264.7 first polarized to M2 with IL-4): shifted the macrophage phenotype from M2 to M1
increase of M1/M2 ratios compared to commercially available CCR2-targeted antibodies ([8]; same molar concentration, listed as NTD-scFv): 7 fold
tumor size compared with PBS-treated mice [9]: significantly smaller
deposition in the kidneys [10]: high deposition
tumor deposition [10]: cannot be detected
distribution half-life t1/2 (α) [11]: 36 s
elimination half-life t1/2 (β) [11]: 16 h
